Laboratory results as given in the supplement of paper PMC12645437, “Orthogonal IMiD-Degron Pairs Induce Selective Protein Degradation in Cells” (ACS Chemical Biology, 2025).
Some of the results follow.

B1: Q9UKT9 (peptide)
chain: FACDICGALFTQKGNLLRHIKL
B2: Q9UKT9 (peptide)
chain: LSCEICGFTCTQKGNLLRHIKL
B3: Q9UKT9 (peptide)
chain: FTCPICGRFFTQKGNLLRHIKL
B4: Q9UKT9 (peptide)
chain: FACPVCGALFTQKGNLLRHIKL
B5: Q9UKT9 (peptide)
chain: FHCDVCGAAFTQKGNLLRHIKL
B6: Q9UKT9 (peptide)
chain: FDCPICGAFFTQKGNLLRHIKL
B7: Q9UKT9 (peptide)
chain: FFCEQCGASFTQKGNLLRHIKL
B8: Q9UKT9 (peptide)
chain: FCCEICGAPFTQKGNLLRHIKL
B9: Q9UKT9 (peptide)
chain: FDCEICGHRFTQKGNLLRHIKL
B10: Q9UKT9 (peptide)
chain: FCCNVCGACFTQKGNLLRHIKL
B11: Q9UKT9 (peptide)
chain: FFCPICGAPFTQKGNLLRHIKL
B12: Q9UKT9 (peptide)
chain: FVCEICGADFTQKGNLLRHIKL
B13: Q9UKT9 (peptide)
chain: LLCNQCGFGCTQKGNLLRHIKL
B14: Q9UKT9 (peptide)
chain: FHCNQCGRTFTQKGNLLRHIKL
B15: Q9UKT9 (peptide)
chain: FWCEICGRIFTQKGNLLRHIKL
B16: Q9UKT9 (peptide)
chain: FLCPQCGAAFTQKGNLLRHIKL
B17: Q9UKT9 (peptide)
chain: LNCEICGFCCTQKGNLLRHIKL
B18: Q9UKT9 (peptide)
chain: FTCDVCGAAFTQKGNLLRHIKL
B19: Q9UKT9 (peptide)
chain: FACDQCGAGFTQKGNLLRHIKL
B20: Q9UKT9 (peptide)
chain: FFCNICGAGFTQKGNLLRHIKL
B21: Q9UKT9 (peptide)
chain: FNCEQCGAQFTQKGNLLRHIKL
B22: Q9UKT9 (peptide)
chain: FCCNQCGHHFTQKGNLLRHIKL
B23: Q9UKT9 (peptide)
chain: FSCEICGAVFTQKGNLLRHIKL
B24: Q9UKT9 (peptide)
chain: LNCPICGFTCTQKGNLLRHIKL
B25: Q9UKT9 (peptide)
chain: FNCNQCGHHFTQKGNLLRHIKL
B26: Q9UKT9 (peptide)
chain: FRCPICGRNFTQKGNLLRHIKL
B27: Q9UKT9 (peptide)
chain: FGCPICGREFTQKGNLLRHIKL
B28: Q9UKT9 (peptide)
chain: FQCEQCGATFTQKGNLLRHIKL
B29: Q9UKT9 (peptide)
chain: FKCPVCGAMFTQKGNLLRHIKL
B30: Q9UKT9 (peptide)
chain: FDCPQCGATFTQKGNLLRHIKL
B31: Q9UKT9 (peptide)
chain: FDCEICGATFTQKGNLLRHIKL
B32: Q9UKT9 (peptide)
chain: FSCPICGHRFTQKGNLLRHIKL

Target: no compound (DMSO)
Assay: log2 fold change of degron read counts, EGFP-low vs EGFP+ sorted cells; higher = lower degron-EGFP level without compound (poor expression or instability)
Details: compound: DMSO control; 18 h
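Also: jurkat cells carrying a lentiviral library of mutant zinc finger degrons fused to EGFP plus mCherry, mCherry+ cells FACS sorted, degron abundance counted by next-generation sequencing.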

| Sequence | log2 fold change of degron read counts |
| --- | --- |
| B1 | -0.687 |
| B2 | -0.635 |
| B3 | -0.152 |
| B4 | 0.232 |
| B5 | -1.27 |
| B6 | 0.0349 |
| B7 | -0.97 |
| B8 | -0.863 |
| B9 | -0.958 |
| B10 | 0.081 |
| B11 | 0.665 |
| B12 | -2.96 |
| B13 | 0.949 |
| B14 | 0.312 |
| B15 | 1.03 |
| B16 | -0.608 |

| Sequence | log2 fold change of degron read counts |
| --- | --- |
| B17 | 0.198 |
| B18 | -1.5 |
| B19 | -0.821 |
| B20 | 0.712 |
| B21 | -1.7 |
| B22 | 0.159 |
| B23 | -2.22 |
| B24 | 0.651 |
| B25 | 0.711 |
| B26 | 0.944 |
| B27 | -0.504 |
| B28 | -3.06 |
| B29 | -0.234 |
| B30 | -1.87 |
| B31 | -0.952 |
| B32 | -0.136 |
